# Test results as given in the supplement of paper PMC12217912.
# This is one part of the list. Sequences were assembled here from the parent chain. Inactive controls read about 0.05.
# B1: TEV protease; numbered along this chain (parent)
# chain: MGESLFKGPRDYNPISSSICHLTNESDGHTTSLYGIGFGPFIITNKHLFRRNNGTLVVQSLHGVFKVKDTTTLQQHLVDGRDMIIIRMPKDFPPFPQKLKFREPQREERICLVTTNFQTKSMSSMVSDTSCTFPSGDGIFWKHWIQTKDGQCGSPLVSTRDGFIVGIHSASNFTNTNNYFTSVPKNFMELLTNQEAQQWVSGWRLNADSVLWGGHKVFMVKPEEPFQPVKEATQL
# Variants of: B1
# Assay: raw area under fraction-flipped curve 0-4 h after induction (AUC4h, not background-subtracted), DNA-recorder readout of cleavage of the substrate (dimensionless); higher = more cleavage of the substrate by the protease variant
# Details: temperature: 34 °C; time window: 0-4 h after rhamnose induction
# Description: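 In vivo DNA recorder in E. coli TOP10(DE3) ΔrhaA at 34 °C. Each TEVp single-site mutant (parent TEVp 0) is paired with a single-site variant of the 7-mer TEVs (canonical ENLYFQ|S). The substrate sits between flexible linkers in a Bxb1-sfGFP-TEVs-SsrA fusion, so cleavage stabilises Bxb1 and speeds flipping of a recombination array, read by NGS. The value is the raw area under the fraction-flipped curve over 0-4 h after rhamnose induction (AUC4h), with ≥20 reads per time point. It is not background-subtracted; inactive controls average about 0.047.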
# 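Note: Bxb1 expression induced with 0.2% (w/v) L-rhamnose at OD600 near 0.5, cultures sampled hourly, flipped fraction per protease–substrate barcode pair counted by paired-end Illumina sequencing.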
Variant,area with substrate EALYFQS,area with substrate ECLYFQS,area with substrate EDLYFQS,area with substrate EELYFQS,area with substrate EFLYFQS,area with substrate EGLYFQS,area with substrate EILYFQS,area with substrate EKLYFQS,area with substrate EMLYFQS,area with substrate EPLYFQS,area with substrate ERLYFQS,area with substrate ESLYFQS,area with substrate ETLYFQS,area with substrate EVLYFQS,area with substrate EWLYFQS,area with substrate EYLYFQS,area with substrate EHLYFQS,area with substrate ELLYFQS,area with substrate EQLYFQS
V126R,0.167,0.131,0.13,0.148,0.123,0.101,0.0982,0.137,0.119,0.135,0.115,0.115,0.186,0.0822,0.105,0.163,,,
S127A,0.131,0.131,0.144,0.11,0.113,0.0894,0.105,0.1,0.121,0.143,0.121,0.102,,0.132,,0.127,0.111,0.148,0.118
S127Y,0.117,,0.144,0.139,,,0.104,,0.127,0.218,0.0963,0.103,0.146,,,0.11,,,0.116
S130C,0.161,0.155,,,,,0.122,,0.209,,0.129,,,0.125,,,,0.109,0.19
S130G,0.141,,0.164,0.146,,,0.0962,,0.126,,0.0945,0.109,0.114,0.0894,0.129,,0.0824,,0.167
S130Q,0.134,,,,,0.0986,,0.109,0.129,,0.137,0.129,,0.105,0.111,,0.114,,
C131T,0.106,0.12,,,,,,0.122,,,,0.114,,,,,,0.121,
F133Q,0.123,,0.172,,,,0.104,0.0988,,0.134,,0.125,0.141,,,0.0984,0.0886,0.113,
F133Y,0.128,0.0535,0.152,0.146,,,0.0893,,0.126,,0.11,0.113,0.113,0.122,0.0901,0.0911,0.134,0.084,
D137C,0.111,0.0771,,0.0835,,0.0988,0.0883,0.077,,,,,,0.0852,0.0804,0.0854,0.0882,0.0763,0.0981
D137K,0.0371,0.0791,,0.148,,0.098,0.0897,0.121,,0.109,0.0875,0.0696,,0.0868,0.0653,0.0984,0.0832,0.0804,0.0905
I139F,0.127,0.052,0.136,0.146,,,0.0852,0.109,0.129,0.133,,,,0.0973,0.152,,,,
I139M,0.128,0.103,,0.138,0.123,0.107,0.0881,0.14,0.146,0.117,0.129,0.125,0.152,0.0875,0.0893,0.133,,0.0875,0.156
I139Y,0.163,0.0642,,0.131,0.132,0.103,0.0963,0.113,0.0868,0.12,,0.114,,0.104,0.11,,,,0.116
